# Results published in the supplement of paper PMC8728848.
# The other results are listed elsewhere or left out.
# Experiments:
# Experiment in all cases: glycan array binding signal (z-score within array); higher = stronger binding
# Conditions in all cases: glycan notation: IUPAC condensed, linker removed
# [1] = target: Gal(b1-3)GlcNAc(b1-2)Man(a1-3)[Gal(b1-3)GlcNAc(b1-2)Man(a1-6)]Man(b1-4)GlcNAc(b1-4)GlcNAc
# How it was run: (§1)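 From the Consortium for Functional Glycomics database, 3228 arrays were curated, keeping only those whose protein sequence was available. Binding is given as a within-array Z-score averaged across arrays sharing a protein sequence and across linkers. Negative Z-scores can be read as non-binding.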
# [2] = target: Gal(b1-3)GlcNAc(b1-2)Man(a1-3)[Gal(b1-3)GlcNAc(b1-2)Man(a1-6)]Man(b1-4)GlcNAc(b1-4)[Fuc(a1-6)]GlcNAc
# How it was run: as §1
# [3] = target: Gal(b1-3)GlcNAc(b1-2)Man(a1-3)[GlcNAc(b1-4)][Gal(b1-3)GlcNAc(b1-2)Man(a1-6)]Man(b1-4)GlcNAc(b1-4)GlcNAc
# How it was run: as §1
# [4] = target: Gal(b1-3)GlcNAc(b1-2)[Gal(b1-3)GlcNAc(b1-6)]Man(a1-6)[Gal(b1-3)GlcNAc(b1-2)Man(a1-3)]Man(b1-4)GlcNAc(b1-4)GlcNAc
# How it was run: as §1
# [5] = target: Gal(b1-3)GlcNAc(b1-3)Gal(b1-3)GlcNAc
# How it was run: as §1
# [6] = target: Gal(b1-3)GlcNAc(b1-3)Gal(b1-4)Glc
# How it was run: as §1
# [7] = target: Gal(b1-3)GlcNAc(b1-3)Gal(b1-4)GlcNAc
# How it was run: as §1
# [8] = target: Gal(b1-3)GlcNAc(b1-3)Gal(b1-4)GlcNAc(b1-2)Man(a1-3)[Gal(b1-3)GlcNAc(b1-3)Gal(b1-4)GlcNAc(b1-2)Man(a1-6)]Man(b1-4)GlcNAc(b1-4)GlcNAc
# How it was run: as §1
# [9] = target: Gal(b1-3)GlcNAc(b1-3)Gal(b1-4)GlcNAc(b1-2)[Gal(b1-3)GlcNAc(b1-3)Gal(b1-4)GlcNAc(b1-6)]Man(a1-6)[Gal(b1-3)GlcNAc(b1-3)Gal(b1-4)GlcNAc(b1-2)Man(a1-3)]Man(b1-4)GlcNAc(b1-4)[Fuc(a1-6)]GlcNAc
# How it was run: as §1
# [10] = target: Gal(b1-3)GlcNAc(b1-3)Gal(b1-4)GlcNAc(b1-3)Gal(b1-4)GlcNAc(b1-2)[Gal(b1-3)GlcNAc(b1-3)Gal(b1-4)GlcNAc(b1-3)Gal(b1-4)GlcNAc(b1-6)]Man(a1-6)[Gal(b1-3)GlcNAc(b1-3)Gal(b1-4)GlcNAc(b1-3)Gal(b1-4)GlcNAc(b1-2)Man(a1-3)]Man(b1-4)GlcNAc(b1-4)[Fuc(a1-6)]GlcNAc
# How it was run: as §1
# [11] = target: Gal(b1-3)GlcNAc(b1-3)Gal(b1-4)GlcNAc(b1-6)[Gal(b1-3)GlcNAc(b1-3)]Gal(b1-4)Glc
# How it was run: as §1
# [12] = target: Gal(b1-3)GlcNAc(b1-3)Gal(b1-4)[Fuc(a1-3)]GlcNAc
# How it was run: as §1
# [13] = target: Gal(b1-3)GlcNAc(b1-3)Gal(b1-4)[Fuc(a1-3)]GlcNAc(b1-6)[Gal(b1-3)GlcNAc(b1-3)]Gal(b1-4)Glc
# How it was run: as §1
# [14] = target: Gal(b1-3)GlcNAc(b1-3)GalNAc
# How it was run: as §1
# [15] = target: Gal(b1-3)GlcNAc(b1-6)Gal(b1-4)GlcNAc
# How it was run: as §1
# [16] = target: Gal(b1-3)GlcNAc(b1-6)GalNAc
# How it was run: as §1
# [17] = target: Gal(b1-3)GlcNAc(b1-6)[Gal(b1-3)]GalNAc
# How it was run: as §1
# Gal(b1-3)GlcNAc6S = target: Gal(b1-3)GlcNAc6S
# How it was run: as §1
# [18] = target: Gal(b1-3)[Fuc(a1-4)]GlcNAc
# How it was run: as §1
# [19] = target: Gal(b1-3)[Fuc(a1-4)]GlcNAc(b1-2)Man
# How it was run: as §1
# [20] = target: Gal(b1-3)[Fuc(a1-4)]GlcNAc(b1-2)Man(a1-3)[Gal(b1-3)[Fuc(a1-4)]GlcNAc(b1-2)Man(a1-6)]Man(b1-4)GlcNAc(b1-4)[Fuc(a1-6)]GlcNAc
# How it was run: as §1
# [21] = target: Gal(b1-3)[Fuc(a1-4)]GlcNAc(b1-3)Gal(b1-3)[Fuc(a1-4)]GlcNAc
# How it was run: as §1
# [22] = target: Gal(b1-3)[Fuc(a1-4)]GlcNAc(b1-3)Gal(b1-4)[Fuc(a1-3)]GlcNAc
# How it was run: as §1
# [23] = target: Gal(b1-3)[Fuc(a1-4)]GlcNAc(b1-6)GalNAc
# How it was run: as §1
# [24] = target: Gal(b1-3)[GlcNAc(b1-6)]GalNAc
# How it was run: as §1
# [25] = target: Gal(b1-3)[Neu5Ac(a2-6)]GalNAc
# How it was run: as §1
# [26] = target: Gal(b1-3)[Neu5Ac(a2-6)]GlcNAc(b1-4)Gal(b1-4)Glc
# How it was run: as §1
# [27] = target: Gal(b1-3)[Neu5Ac(b2-6)]GalNAc
# How it was run: as §1
# Gal(b1-4)Gal = target: Gal(b1-4)Gal
# How it was run: as §1
# [28] = target: Gal(b1-4)GalNAc(a1-3)[Fuc(a1-2)]Gal(b1-4)GlcNAc
# How it was run: as §1
# [29] = target: Gal(b1-4)GalNAc(b1-3)[Fuc(a1-2)]Gal(b1-4)GlcNAc
# How it was run: as §1
# Gal(b1-4)Glc = target: Gal(b1-4)Glc
# How it was run: as §1
# Gal(b1-4)Glc6S = target: Gal(b1-4)Glc6S
# How it was run: as §1
# Gal(b1-4)GlcNAc = target: Gal(b1-4)GlcNAc
# How it was run: as §1
# [30] = target: Gal(b1-4)GlcNAc(a1-6)Gal(b1-4)GlcNAc
# How it was run: as §1
# Gal(b1-4)GlcNAc(b1-2)Man = target: Gal(b1-4)GlcNAc(b1-2)Man
# How it was run: as §1
# [31] = target: Gal(b1-4)GlcNAc(b1-2)Man(a1-3)Man(b1-4)GlcNAc(b1-4)GlcNAc
# How it was run: as §1
# [32] = target: Gal(b1-4)GlcNAc(b1-2)Man(a1-3)[Gal(b1-4)GlcNAc(b1-2)Man(a1-6)]Man(b1-4)GlcNAc(b1-4)GlcNAc
# How it was run: as §1
# [33] = target: Gal(b1-4)GlcNAc(b1-2)Man(a1-3)[Gal(b1-4)GlcNAc(b1-2)Man(a1-6)]Man(b1-4)GlcNAc(b1-4)[Fuc(a1-6)]GlcNAc
# How it was run: as §1
# [34] = target: Gal(b1-4)GlcNAc(b1-2)Man(a1-3)[Gal(b1-4)GlcNAc(b1-2)Man(a1-6)][Gal(b1-4)GlcNAc(b1-4)]Man(b1-4)GlcNAc(b1-4)[Fuc(a1-6)]GlcNAc
# How it was run: as §1
# [35] = target: Gal(b1-4)GlcNAc(b1-2)Man(a1-3)[Gal(b1-4)GlcNAc(b1-2)Man(a1-6)][GlcNAc(b1-4)]Man(b1-4)GlcNAc(b1-4)[Fuc(a1-6)]GlcNAc
# How it was run: as §1
# [36] = target: Gal(b1-4)GlcNAc(b1-2)Man(a1-3)[GlcNAc(b1-2)Man(a1-6)]Man(b1-4)GlcNAc(b1-4)GlcNAc
# How it was run: as §1
# [37] = target: Gal(b1-4)GlcNAc(b1-2)Man(a1-3)[GlcNAc(b1-4)][Gal(b1-4)GlcNAc(b1-2)Man(a1-6)]Man(b1-4)GlcNAc(b1-4)GlcNAc
# How it was run: as §1
# [38] = target: Gal(b1-4)GlcNAc(b1-2)Man(a1-3)[Man(a1-6)]Man(b1-4)GlcNAc(b1-4)GlcNAc
# How it was run: as §1
# [39] = target: Gal(b1-4)GlcNAc(b1-2)Man(a1-6)Man(b1-4)GlcNAc(b1-4)GlcNAc
# How it was run: as §1
binder,measurement,setting,value
CpGal16 (Clavelina picta) (protein) MAKMITNYVGKRIECIMVATDMMSTVFSLASATGDLPFYINFRQRENSIVMNTRVHGKWQYEKSQSSGGMNFYEPFRLVVEVRPSVFKVTVSTMGEEDGITFNLQYSQITIKPDEIVAMHLGYCNLRSELLVTDL,glycan array binding signal (z-score),[1],1.83
same,glycan array binding signal (z-score),[2],0.609
same,glycan array binding signal (z-score),[3],2.87
same,glycan array binding signal (z-score),[4],1.83
same,glycan array binding signal (z-score),[5],1.61
same,glycan array binding signal (z-score),[6],0.915
same,glycan array binding signal (z-score),[7],1.29
same,glycan array binding signal (z-score),[8],3.83
same,glycan array binding signal (z-score),[9],3.99
same,glycan array binding signal (z-score),[10],4.48
same,glycan array binding signal (z-score),[11],2.57
same,glycan array binding signal (z-score),[12],1.1
same,glycan array binding signal (z-score),[13],3.33
same,glycan array binding signal (z-score),[14],0.241
same,glycan array binding signal (z-score),[15],0.847
same,glycan array binding signal (z-score),[16],1.26
same,glycan array binding signal (z-score),[17],0.952
same,glycan array binding signal (z-score),Gal(b1-3)GlcNAc6S,-0.144
same,glycan array binding signal (z-score),[18],-0.302
same,glycan array binding signal (z-score),[19],-0.25
same,glycan array binding signal (z-score),[20],-0.368
same,glycan array binding signal (z-score),[21],-0.449
same,glycan array binding signal (z-score),[22],-0.437
same,glycan array binding signal (z-score),[23],-0.27
same,glycan array binding signal (z-score),[24],-0.334
same,glycan array binding signal (z-score),[25],-0.439
same,glycan array binding signal (z-score),[26],0.438
same,glycan array binding signal (z-score),[27],-0.481
same,glycan array binding signal (z-score),Gal(b1-4)Gal,-0.414
same,glycan array binding signal (z-score),[28],1.04
same,glycan array binding signal (z-score),[29],-0.346
same,glycan array binding signal (z-score),Gal(b1-4)Glc,-0.209
same,glycan array binding signal (z-score),Gal(b1-4)Glc6S,0.941
same,glycan array binding signal (z-score),Gal(b1-4)GlcNAc,-0.368
same,glycan array binding signal (z-score),[30],-0.346
same,glycan array binding signal (z-score),Gal(b1-4)GlcNAc(b1-2)Man,-0.299
same,glycan array binding signal (z-score),[31],-0.257
same,glycan array binding signal (z-score),[32],-0.143
same,glycan array binding signal (z-score),[33],-0.202
same,glycan array binding signal (z-score),[34],-0.147
same,glycan array binding signal (z-score),[35],-0.043
same,glycan array binding signal (z-score),[36],-0.159
same,glycan array binding signal (z-score),[37],-0.358
same,glycan array binding signal (z-score),[38],-0.273
same,glycan array binding signal (z-score),[39],-0.232
